# Measurements: PubChem BioAssay AID1240 (Sanford-Burnham Center for Chemical Genomics, 2008)
# The campaign covered roughly 50,000 compounds. About 800 (1.6%) showed an effect of 50% or more. The list shows a part of the results.
# Molecular target: Bcl-2-like protein 10 (Homo sapiens) (UniProt Q9HD36)
# Experiment: TR3 peptide-Bcl-B binding displacers, biochemical primary FP assay, phenotype converters (AID 1240);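 note: 0% = Bcl-B with tracer peptide and DMSO and 100% = tracer peptide lacking Bcl-B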
# Conditions: GST-Bcl-B / FITC-TR3 peptide fluorescence polarization; stronger effect = higher value; compound at 3.75 mg/L
# Sequence of UniProt Q9HD36 (Q9HD36 whole entry, looked up): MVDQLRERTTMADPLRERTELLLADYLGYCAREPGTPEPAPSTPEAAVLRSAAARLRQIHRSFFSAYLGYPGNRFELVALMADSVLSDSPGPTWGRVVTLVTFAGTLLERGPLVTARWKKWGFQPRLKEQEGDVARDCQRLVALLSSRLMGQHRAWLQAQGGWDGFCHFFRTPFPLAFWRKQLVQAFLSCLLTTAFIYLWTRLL
row,SMILES,displacement [%]
1,N#C/C(=C/c1ccc(-c2ccccc2C(=O)O)o1)C(=O)Nc1ccc2ccccc2c1,18.9
2,COc1ccc(S(=O)(=O)N2CCN(Cc3ccc(Cl)cc3)CC2)cc1,12.2
3,CC(=O)N(C)c1ccc(NC(=O)c2ccc(F)cc2)cc1,-0.3
4,COc1ccccc1Nc1nc(C(F)(F)F)c(-c2ccccc2)s1,7.8
5,C/C(Nc1ccc(C)cc1)=C(/C#N)C(N)=O,-3.5
6,CCN(CC)c1ccc(NC(=O)Nc2ccccc2)cc1,-5.4
7,CC1=C(C(=O)OC2CCCCC2)C(c2cccc(Cl)c2)C2=C(CCCC2=O)N1 (centres undefined),5.2
8,O=c1/c(=C/c2cn(Cc3ccc(F)cc3)c3ccccc23)sc2nc3ccccc3n12,2.3
9,COc1cc(NC(=O)c2cc(OC)c(OC)c(OC)c2)ccc1NC(=O)c1ccco1,-13.2
10,CCc1ccc(N2C(=O)NC(=O)/C(=C\c3cc(I)c(O)c(OC)c3)C2=O)cc1,-7.2
11,CC(=O)Oc1ccc(C(=O)Nc2cc([N+](=O)[O-])ccc2O)cc1,7.1
12,CCCCOC(=O)CCN1C(=O)/C(=C\c2cccs2)SC1=S,-19.6
13,CCOc1ccc(NC(=O)C2=C(C)NC(=S)NC2c2c(OC)ccc3ccccc23)cc1 (centres undefined),13.5
14,Cc1cccc(OCC(=O)N/N=C\c2ccc(-c3cc([N+](=O)[O-])ccc3Cl)o2)c1C,-2
15,C=CCC1(C#N)C(=S)NC2=C(C(=O)CC(C)(C)C2)C1C (centres undefined),-25.3
16,CC1(C)CC(=O)C2=C(C1)c1c(ccc3ccccc13)NC2c1cn[nH]c1-c1ccccc1 (centres undefined),3.9
17,CC1C(c2ccccc2)NC(c2ccccc2)C(C)C1(O)c1ccccc1 (centres undefined),11.1
18,CCN(CC)C(=O)c1c(NC(=O)c2cccc(C)c2)sc2c1CCCCC2,-8.3
19,S=C1NC(c2ccccc2)=NCN1c1ccc(Br)cc1,9.6
20,O=C(c1cc2n(n1)C(C(F)(F)F)CC(c1cccs1)N2)N1CCCC1 (centres undefined),-1.2
21,CCc1c(C)sc(NC(=O)c2c(-c3ccccc3)noc2C)c1C(N)=O,-9.1
22,O=C(N/N=C\c1cc(I)ccc1O)c1ccc(Br)cc1,8.9
23,Cc1ccc(S(=O)(=O)Nc2ccc(C(=O)CC(=O)Nc3ccccc3)cc2)cc1,-11.6
24,CCCCCCNC(=O)C(NC(=O)c1ccccc1)C12CC3CC(CC(C3)C1)C2 (centres undefined),-7.1
25,CC1=NN(c2ccccc2)C(c2ccc(O)cc2)C1 (centres undefined),17.6
26,COc1ccc(C(=O)/C=C/c2ccc(OC)c([N+](=O)[O-])c2)cc1,-2.6
27,O=C1/C(=C\c2cc([N+](=O)[O-])cc(Br)c2O)SC(=S)N1c1cccc(Cl)c1,-27.5
28,CCCCCCCCn1c(/N=C/c2cccc(OCC)c2O)nc2ccccc21,0.3
29,COc1ccc(OC(C)C(=O)Nc2ccc([N+](=O)[O-])cc2)cc1 (centres undefined),14.9
